Measured values published in ChEMBL document CHEMBL1157539, “Thousands of chemical starting points for antimalarial lead identification” (Nature, 2010).
In all, about 13,000 compounds were measured (“IFI”: median about 4, highest 2% from about 17 on). The list shows a part of the results.

Test: GSK_TCMDC: Inhibition Frequency Index (IFI). The number of non-kinase HTS assays where a compound showed > 50 % inhibition, expressed as a percentage of the number of such assays in which the compound was tested (-0 is zero)
Assay type: functional

Row | SMILES | IFI [%]
1 | CNCCNc1nccc(N2CCc3ncnc(Nc4ccc(OCc5cccc(F)c5)c(Cl)c4)c3C2)n1 | 12.4
2 | N#Cc1ccccc1N1CCN(C2CCC(NC(=O)c3n[nH]c4cc(C(F)(F)F)ccc34)CC2)CC1 (stereo unspecified) | 1.75
3 | NCc1ccc(CNCc2cccc(-c3cccc(-c4nc5cc(F)ccc5[nH]4)c3)c2)cc1 | 6
4 | Cc1cccc2nc(-c3cccc(-c4ccc(NC(=O)c5cnccc5C(F)(F)F)cc4)c3)[nH]c12 | 8.93
5 | CCCCCCCN1CC[C@@H](CCCc2ccnc3ccc(OCC4CCCNC4)cc23)[C@@H](CC)C1 (stereo partly specified) | 9.35
6 | CC(=O)Nc1cc(C(=O)Nc2ccc(C3=NCCN3)cc2)ccc1C(=O)Nc1ccc(C2=NCCN2)cc1 | 1.45
7 | Cc1nn(CCOC(=O)NC(NCC2COc3ccccc3O2)C(Cl)(Cl)Cl)cc1[N+](=O)[O-] (stereo unspecified) | 1.53
8 | CC(C)Cn1cc(C2CCN(CCN3CCC(CNC(=O)c4ccc(NC(=O)c5cc(Cl)cc(Cl)c5)cc4)CC3)CC2)c2ccccc21 | 8.18
9 | Cc1cc(-c2nc3cncc(-c4cccc(CN5CCCC5Cc5cccnc5)c4)c3n2C)nn1C (stereo unspecified) | -0
10 | O=C(N/C=N/c1cc([N+](=O)[O-])c(-c2cccnc2)n1-c1ccc(O)cc1)c1ccccc1 | 1.47
11 | CCC[C@@H]([C@@H](CC(C)C)C(=O)N[C@@H](CCCCNC(=O)c1ccccn1)C(=O)Nc1nccs1)N(O)C=O | 2.99
12 | CNC(=O)c1cnc(Nc2ccc(N3CCN(C)CC3)cc2)nc1Nc1cccc([N+](=O)[O-])c1 | 3.73
13 | C[C@@H](CNc1ccnc(Nc2ccc3[nH]c(=O)[nH]c3c2)n1)c1ccccc1 | 3.23
14 | CCCOc1ccc(C=C(CC(=O)O)c2nc3ccccc3s2)cc1OCC | 6
15 | CN1CCC(c2c[nH]c3ccc(NC(=O)Nc4ccc(-c5ccncc5)c(Cl)c4Cl)cc23)CC1 | 3.68
16 | O=c1ccc2ncc(Cl)c3c2n1CC3CN1CCC(NCc2cc3c(cn2)OCCO3)CC1 (stereo unspecified) | 1.4
17 | O=C1CSc2ccc(CNC3CCN(CCc4c(Cl)cnc5ccc(F)cc45)CC3)nc2N1 | 2.34
18 | Cc1cc(N[C@@H](CC(C)C)C(=O)NCc2cccs2)nc(Nc2ccccc2)n1 | 7.32
19 | CCCc1cc(OC)c(C[C@@H]2c3cc(O)c(Cl)cc3CCN2C)cc1OC | 0.74

Row | SMILES | IFI [%]
20 | N#Cc1ccc(N2CCN(Cc3ccc(-c4ccc(-c5nc6cc(C(F)(F)F)ccc6[nH]5)s4)cc3)CC2)nc1 | 4.85
21 | CCN(CC)CC#Cc1ccc2[nH]c(C)c(Cl)c(=O)c2c1 | 3.67
22 | Cc1cc(CN2CCCC(OC(c3ccc(F)cc3)c3ccc(F)cc3)C2)ccc1O (stereo unspecified) | 5.19
23 | O=C(Nc1ccc(I)cc1)N1CCc2sccc2C1CN1CCCCC1 (stereo unspecified) | 2.47
24 | NC1CCCN(Cc2ccc(-c3ccc(-c4nc5cc(F)ccc5[nH]4)s3)cc2)C1 (stereo unspecified) | 8.45
25 | NC1=NC(c2ccccc2)N(OCc2ccccc2)C(N)=N1 (stereo unspecified) | -0
26 | Cn1c(NC2CCN(CC3CCN(C(=O)/C=C/c4ccc(Cl)c(Cl)c4)CC3)CC2)nc2ccccc21 | 10.4
27 | O=C(Nc1ccc(-c2nc3ccccc3[nH]2)cc1)c1cnc(Cl)c(Cl)c1 | 1.47
28 | CC(C)Nc1cc(C(=O)N[C@@H](Cc2ccccc2)[C@H](O)CNC2CCCCC2)cc(N2CCCCS2(=O)=O)c1 | 2.14
29 | Cc1cccc2nc(-c3ccc(-c4cccc(NC(=O)Nc5cccc(C#N)c5)c4)cc3)[nH]c12 | 4.04
30 | COc1ccc(NC(=O)N2CCCN(CCCCCNC(=O)/C=C/c3ccc(Cl)cc3)CC2)cc1Cl | 6
31 | Nc1cccc(-c2ccc3ccnc(N)c3c2)c1 | 5.56
32 | Cc1ccc(NS(=O)(=O)c2ccc(C(C)N3CCC(N4CCCCC4)CC3)cc2)cc1C (stereo unspecified) | 10.1
33 | Nc1cccc(CNCc2ccc(-c3ccc(-c4nc5ccccc5[nH]4)s3)cc2)c1 | 8.57
34 | CC[C@H](C)CNC(=O)c1ccnc(-c2cccc(CN3CCC(N4CCCC4)CC3)c2)c1 | 1.61
35 | CS(=O)(=O)c1ccc(-c2cc(C(F)(F)F)nc(N[C@@H]3CCCC[C@H]3OCc3ccccc3)n2)cc1 | 1.5
36 | CC(=O)Nc1ncc(C(=O)Nc2cccc(-c3ccc(-c4nc5cccc(C)c5[nH]4)cc3)c2)s1 | 6.48
37 | Cc1cccc2nc(-c3ccc(-c4ccc(CN5CCCCC5CO)cc4)cc3)[nH]c12 (stereo unspecified) | 5.56
38 | COc1c(C2CCN(CCCCNC(=O)c3ccc(-c4ccc(C#N)cc4)nc3)CC2)ccc2c1CCCC2 | 12.2

Row | SMILES | IFI [%]
39 | CCOc1ccc2c(=NN=Cc3ccccc3F)cc(C)[nH]c2c1 | 1.43
40 | N=C(N)NCCCN(Cc1ccccc1)c1ccccc1 | 5.97
41 | CC(C)NCc1cccc(-c2cccc(NC(=O)c3ccc(C#N)cc3)c2)c1 | 3.88
42 | COc1ccc(CNC(=O)c2cnc3c(O)cccc3c2Nc2cccc(NC(=O)c3ccc(-c4ccccc4)cc3)c2)cc1 | 5.93
43 | Cc1ccc(-n2cc(CNCC3CCN(CCO)CC3)c(-c3ccc(F)cc3)n2)cc1 | 11.4
44 | Cc1cnc2ccc(NS(=O)(=O)c3ccc4c(Cl)cccc4c3)cc2c1N1CCNCC1 | 1.42
45 | O=C(CSc1cccc[n+]1[O-])c1ccc(Cc2ncc(C(F)(F)F)cc2Cl)s1 | 0.74
46 | O=C(NC1CCN(Cc2ccccc2)CC1)c1cccc(-c2nc3ccc(Cl)cc3[nH]2)c1 | 0.75
47 | O=C(Nc1ccc(C(=O)N2CCN(CCN3CCN(c4cccc(C(F)(F)F)c4)CC3)CC2)cc1)c1cc(Cl)cc(Cl)c1 | 1.74
48 | COc1cc2nc(Nc3ccc(Oc4ccccc4)cc3)nc(Nc3ccc(Oc4ccccc4)cc3)c2cc1OC | 3.65
49 | CC(C)(C)OC(=O)Nc1cccc(-c2csc(NC(=N)N)n2)c1 | 4.08
50 | CCOc1ccc2nc3cc(NC(=O)c4ccco4)ccc3c(N)c2c1 | 20.5
51 | CC(=O)Nc1nc(C)c(-c2csc(Nc3ccc(Cl)cc3)n2)s1 | 4.41
52 | NC1=NC(CCc2ccccc2)N(c2ccccc2)C(N)=N1 (stereo unspecified) | 2.22
53 | Cc1cccc2nc(-c3ccc(-c4cccc(CNCc5ccccc5)c4)s3)[nH]c12 | 4.81
54 | CNCCNCc1ccc(-c2cccc(-c3nc4cc(C(F)(F)F)ccc4[nH]3)c2)cc1 | 4.95
55 | COc1ccc2nccc([C@@H](O)CN3CCC(NCc4cc5cccc(OCc6ccccc6)c5[nH]4)CC3)c2c1 | 13
56 | NS(=O)(=O)c1ccc(CNc2ccc3ncc(-c4ccc(Cl)cc4)n3n2)cc1 | 3.82
